Measured values as given in PubChem BioAssay AID1625 (Sanford-Burnham Center for Chemical Genomics, 2009).
The other results are listed elsewhere or left out. These are further read-outs of the screen, such as a control signal, another cell line or another target. No call is given for them. Most of these compounds were active or inconclusive in the main read-out, so they are no random draw.

Assay: up-regulation of insulin promoter-GFP reporter – imaging, high-content screening, mouse beta cells (AID 1625);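 note: total cells summed across four imaged fields per well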
Conditions: MIN6 insulin promoter-GFP reporter, measured here: cytotoxicity, nuclei count, at 5 µM

Row | SMILES | cell count [cells]
1 | Cc1nc(N2CCN(C(=O)c3ccco3)CC2)c2c3c(sc2n1)CCCC3 | 415
2 | CCOC(=O)c1[nH]c2ccccc2c1NC(=S)Nc1cccc(C)c1 | 414
3 | CN(C)/C=N/c1ncc(C(=O)c2ccc(Cl)cc2)s1 | 465
4 | CN(C)CCCN(C(=O)/C=C/c1cccs1)c1nc2ccc(F)cc2s1 | 286
5 | CCn1ncc(Br)c1C(=O)Nc1sc2c(c1C(N)=O)CCC2 | 1070
6 | CCCCc1c(CCC)c(=N)c2ccccc2n1C | 126
7 | CCN1/C(=C\c2ccc3ccccc3[n+]2CC)Sc2cc(C)ccc21 | 196
8 | CCN(CC)S(=O)(=O)c1ccc(C(=O)OCn2c(SC)nnc(C)c2=O)cc1 | 427
9 | Cc1noc(C)c1S(=O)(=O)N1CCC(C(=O)N2CCN(C3CCCC3)CC2)CC1 | 1440
10 | Cn1c(=O)n(C)c2cc([N+](=O)[O-])c(N3CCN(C(=O)c4ccccc4)CC3)cc21 | 496
11 | CN(C)c1ccc(/C=C2\SC(=O)N(CC(O)Cn3c4ccccc4c4ccccc43)C2=O)cc1 (configuration not stated) | 1310
12 | CCOC(=O)CNC(=O)c1cn(C)c(=O)c2cc(OC)c(OC)cc12 | 1070
13 | CC(C)NCC(O)Cn1c2c(c3ccccc31)CCc1c-2cnn1-c1ccccc1 (configuration not stated) | 481
14 | CCN=c1scc(-c2ccc3c(c2)NC(=O)CO3)n1N=C1CCCC1 | 426
15 | Cc1cccc(N2CCN(S(=O)(=O)c3ccc4c(c3)CCN4C(=O)CCC(=O)O)CC2C)c1 (configuration not stated) | 397
16 | COc1ccc(NS(=O)(=O)c2ccc(OC)c(N(C)S(=O)(=O)c3ccc(Cl)cc3)c2)cc1 | 328
17 | O=C(c1ccco1)N1CCN(c2nc(C(F)(F)F)nc3c2nnn3Cc2ccccc2)CC1 | 401
18 | CCOC(=O)CN1CC23C=CC(O2)C(C(=O)Nc2cc(OC)ccc2OC)C3C1=O (configuration not stated) | 2010
19 | Clc1nc2c(-c3ccccc3)nnn2c2ccccc12 | 302
20 | O=C(N/N=C/c1cc(Br)ccc1O)c1cccc(N2CCCC2=O)c1 | 426
21 | COc1cccc(-c2nc(CS(=O)(=O)CC(=O)N3CCc4ccccc43)c(C)o2)c1 | 450
22 | CC1=C/C(=N\OS(=O)(=O)c2ccccc2)C=CC1=O | 473
23 | O=C(CCCO)N/N=C/c1cc(Br)ccc1O | 392

Row | SMILES | cell count [cells]
24 | CCOc1ccccc1NC(=O)CN(c1ccc(C)cc1)S(=O)(=O)c1c(C)n[nH]c1C | 449
25 | Cc1[nH]c2ccccc2c1/C=N/Nc1ccc([N+](=O)[O-])cc1 | 1100
26 | Cc1cc2[nH]c3c(c[n+](C)c4ccccc34)c2cc1C | 381
27 | C/C(CCc1ccc2c(c1)OCO2)=N\NC(=O)c1ccccc1 | 476
28 | CN(C)C=Nc1ccc2nn(-c3ccccc3)nc2c1 | 1390
29 | CC(C)(C)c1ccc(-c2cn(-c3ccc(Br)cc3)c3[n+]2CCCS3)cc1 | 418
30 | N#C/C(=C/c1ccc(-c2ccccc2)o1)c1nc(-c2cccs2)cs1 | 1070
31 | N#C/C(=C/c1ccc(-c2ccc(S(N)(=O)=O)cc2)o1)c1nc2ccccc2s1 | 1100
32 | CN(C)c1ccc(-c2n(C)c3ccccc3[n+]2C)cc1 | 444
33 | COc1ccc(-n2cc(-c3ccccc3)[n+]3c2CCCCC3)cc1 | 448
34 | O=C(OCC(=O)N1CCN(C(=O)c2ccco2)CC1)c1ccccc1OCc1ccccc1 | 1320
35 | CCn1c(/C=C/c2ccc([N+](=O)[O-])o2)nc2ccccc2c1=O | 254
36 | CCCCN(CC)S(=O)(=O)c1ccc(C(=O)N=c2sc3cc(NC(C)=O)ccc3n2C)cc1 | 490
37 | CCOc1ccc(OCCCCn2ccnc2)cc1 | 1110
38 | COc1ccc(CNC(=S)N/N=C/c2ccc(O)c(OC)c2)cc1 | 492
39 | O=C(COc1ccccc1)N1CCN=C1c1ccccc1 | 1350
40 | Cc1cc(/C=C2\SC(=S)NC2=O)c(C)n1C1CC1 | 1500
41 | CCOC(=O)Cn1c2ccc(F)cc2c2nc(C)sc21 | 1360
42 | O=C(NCC1CCCO1)c1ccc(CS(=O)(=O)c2c(Cl)cccc2Cl)o1 (configuration not stated) | 260
43 | Cn1c(=O)c(Nc2ccc(Cl)cc2)c2c3c(cccc31)C(=O)c1ccccc1-2 | 1180
44 | CCNC(=O)CC1C(=O)N(c2cccc(OC)c2)C(=O)N1CCOC (configuration not stated) | 467
45 | O=C(O)/C=C/c1coc2ccc(F)cc2c1=O | 432
46 | Cn1c(=O)n(C)c2cc(NC(=O)COc3ccc(Cl)cc3)ccc21 | 1200

Row | SMILES | cell count [cells]
47 | Brc1ccc(Oc2nsnc2N2CCOCC2)cc1 | 1300
48 | CC(=O)n1cc(N(C(=O)CCl)c2ccc(Cl)cc2)c2ccccc21 | 280
49 | Cc1cc(N=NC(=O)c2ccccc2)ccc1O | 328
50 | CCOC(=O)c1ccc(NC(=O)Cn2ncc(Cl)c(Cl)c2=O)cc1 | 213
51 | O=c1oc2c3c4c(cc2c(C(F)(F)F)c1CCN1CCOCC1)CCCN4CCC3 | 1310
52 | CCOc1ccc(Oc2cc(NC(=O)c3ccco3)cc([N+](=O)[O-])c2)cc1 | 490
53 | Cc1ccc(NC(=O)CN(C)C(=O)Cn2ncc(Cl)c(Cl)c2=O)cc1 | 385
54 | CCN1/C(=C/C=C/c2oc3ccc4ccccc4c3[n+]2CC)Oc2ccc3ccccc3c21 | 550
55 | CCn1c(SCC(=O)c2c[nH]c3ccccc23)nc2cc(S(=O)(=O)N3CCOCC3)ccc21 | 1500
56 | COc1ccccc1NC(=O)/C=C1\SCC(=O)N1C | 1170
57 | CCC(NC(=O)Nc1ccc(O)cc1)(C(F)(F)F)C(F)(F)F | 473
58 | Cc1ccc(-c2cc[n+](Cc3ccccc3)cc2)cc1 | 401
59 | CC1CN(C(=O)CCn2c(=O)oc3ccccc32)CC(C)O1 (configuration not stated) | 1170
60 | c1ccc(-n2ncc3c(N4CCN(c5ccccn5)CC4)nc(N4CCCCCC4)nc32)cc1 | 861
61 | Cn1c(C(=O)N2CCC(C(=O)N3CCN(Cc4ccc5c(c4)OCO5)CC3)CC2)cc2sccc21 | 1940
62 | CCCCN1C(=O)/C(=C/C=C2\Oc3ccccc3N2CC)SC1=S | 1560
63 | CN(c1cccc(Cl)c1)S(=O)(=O)c1cccc(C(=O)NC2=NCCS2)c1 | 1550
64 | Cc1ccc(-n2c(O)c(/C=N/NC(=O)C3COc4ccccc4O3)c3ccccc3c2=O)cc1 (configuration not stated) | 1260
65 | COc1c(CC=C(C)C)cc(C2CC(=O)c3c(O)cc(O)cc3O2)cc1CC=C(C)C (configuration not stated) | 200
66 | CC(C)(C)NC(=S)N/N=C\c1ccc(-c2ccc([N+](=O)[O-])cc2)o1 | 1020
67 | CCCNC(=O)c1ccc2c(=O)c(O)c(-c3cccc(Br)c3)[nH]c2c1 | 181
